The BET-seq Pho4 binding data (Le et al. 2018)
This is one part of the list. Values were computed here from the reads of four pooled replicates and scatter widely.

molecular target: T1, Pho4 (S. cerevisiae) (UniProt P07270); test: relative binding free energy (BET-seq); higher = weaker binding; conditions: reference: library average
T1 sequence: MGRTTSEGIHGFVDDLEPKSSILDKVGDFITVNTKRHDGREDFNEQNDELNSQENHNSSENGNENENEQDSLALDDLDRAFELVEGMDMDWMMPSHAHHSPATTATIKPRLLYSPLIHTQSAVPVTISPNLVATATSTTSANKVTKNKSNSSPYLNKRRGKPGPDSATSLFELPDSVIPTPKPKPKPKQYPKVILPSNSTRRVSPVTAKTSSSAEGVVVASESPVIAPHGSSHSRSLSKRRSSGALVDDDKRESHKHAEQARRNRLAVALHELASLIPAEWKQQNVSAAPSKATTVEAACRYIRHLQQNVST

| Sequence | relative binding free energy |
| --- | --- |
| GGCTGCACGTGAATTG | 0.31 kcal/mol |
| ATATTCACGTGGTCTT | 0.04 kcal/mol |
| TTTAGCACGTGTAGAA | -0.13 kcal/mol |
| TTATGCACGTGTTCGT | -0.01 kcal/mol |
| GTATCCACGTGGGTAT | 0.06 kcal/mol |
| GTTCGCACGTGCTGTG | 0.04 kcal/mol |
| TGGTGCACGTGAATGT | 0.22 kcal/mol |
| GCAAGCACGTGGGTGA | -0.18 kcal/mol |
| GTTTTCACGTGAGGTT | 0.46 kcal/mol |
| TTGACCACGTGATTGG | 0.19 kcal/mol |
| CTGGTCACGTGGTTGA | 0.23 kcal/mol |
| GCGGGCACGTGTGATA | 0.06 kcal/mol |
| TTTTTCACGTGTGTTA | 0.34 kcal/mol |
| GGTTACACGTGTAGTA | 0.21 kcal/mol |
| GTTAGCACGTGTGTGC | 0.04 kcal/mol |
| GTGCGCACGTGAGGGT | 0.18 kcal/mol |
| AGTGACACGTGCTGTG | -0.08 kcal/mol |
| AGATGCACGTGATTAT | 0.01 kcal/mol |
| GTTGCCACGTGTAATG | 0.11 kcal/mol |
| CGCCGCACGTGGGTGG | -0.18 kcal/mol |
| TCTGTCACGTGTTGAT | -0.01 kcal/mol |
| TGGTACACGTGGCATT | 0 kcal/mol |
| AGGGCCACGTGAATGG | 0.11 kcal/mol |

| Sequence | relative binding free energy |
| --- | --- |
| GTTTACACGTGTTTGG | 0.17 kcal/mol |
| GGTATCACGTGCGGAT | 0.16 kcal/mol |
| TGACGCACGTGAGAGT | 0.14 kcal/mol |
| GGGCACACGTGTAAGG | 0.22 kcal/mol |
| GCGTCCACGTGTGAGG | 0.26 kcal/mol |
| AAGTGCACGTGGTGGC | -0.16 kcal/mol |
| CTTGGCACGTGAGGGC | 0.08 kcal/mol |
| GGTTTCACGTGTGGAC | 0.36 kcal/mol |
| TTATACACGTGGGATC | 0.05 kcal/mol |
| GGTTGCACGTGACTGG | 0.05 kcal/mol |
| AAGGGCACGTGGCTTA | -0.22 kcal/mol |
| TCTCTCACGTGGTGTG | 0.16 kcal/mol |
| TGAGGCACGTGTCGTT | -0.02 kcal/mol |
| ATGGGCACGTGCGGTA | -0.27 kcal/mol |
| ATGTTCACGTGTGATT | 0.3 kcal/mol |
| AATTGCACGTGGTTCA | -0.02 kcal/mol |
| TTGAGCACGTGAAAGT | 0.2 kcal/mol |
| GAGGTCACGTGCTGTA | 0.07 kcal/mol |
| TTGCGCACGTGTGAGT | -0.12 kcal/mol |
| TGTGTCACGTGCGTTC | -0.07 kcal/mol |
| AGTAGCACGTGAGTGT | 0.13 kcal/mol |
| GGTCGCACGTGACTGG | 0.09 kcal/mol |
| ATTATCACGTGTACGT | 0.15 kcal/mol |

| Sequence | relative binding free energy |
| --- | --- |
| TTGCGCACGTGTTTGG | -0.1 kcal/mol |
| GGTGCCACGTGGTGCT | -0.17 kcal/mol |
| GATGGCACGTGCAGTT | -0.04 kcal/mol |
| TATTGCACGTGTTCTT | 0.05 kcal/mol |
| GTGATCACGTGGAGGC | 0.1 kcal/mol |
| TAGCGCACGTGGGTCT | -0.3 kcal/mol |
| TGTATCACGTGTTCAT | 0.14 kcal/mol |
| GGTGTCACGTGCTTGG | 0.01 kcal/mol |
| GGGGTCACGTGGCGGT | 0.17 kcal/mol |
| TGTCGCACGTGCTGGG | -0.17 kcal/mol |
| TTGTGCACGTGAACGA | 0.21 kcal/mol |
| TGGTCCACGTGGTGAT | -0.02 kcal/mol |
| TTTAACACGTGTTGTC | -0.09 kcal/mol |
| CTAGGCACGTGTTGTA | -0.07 kcal/mol |
| ATCTGCACGTGGTCTG | -0.05 kcal/mol |
| TCATGCACGTGGTGTG | -0.14 kcal/mol |
| TTTTGCACGTGTTTAA | 0.07 kcal/mol |
| GGACACACGTGGGAGG | -0.17 kcal/mol |
| TTATGCACGTGTGATC | 0.1 kcal/mol |
| ATAATCACGTGGGGTT | 0 kcal/mol |
| CTTACCACGTGGGAGT | -0.02 kcal/mol |
| TTCTGCACGTGAGAGG | 0.21 kcal/mol |
| ATGTGCACGTGTTTGG | -0.06 kcal/mol |

| Sequence | relative binding free energy |
| --- | --- |
| GGCGGCACGTGTGCTT | -0.06 kcal/mol |
| ATGTCCACGTGTGGTA | 0.02 kcal/mol |
| TTAGTCACGTGTGCAA | 0.05 kcal/mol |
| GTTGACACGTGGAGTG | 0.07 kcal/mol |
| GTTGCCACGTGGTCTA | 0.05 kcal/mol |
| CGTTACACGTGTTGGA | 0.14 kcal/mol |
| AATGGCACGTGATTGA | -0.02 kcal/mol |
| AGGTCCACGTGGGGGA | -0.11 kcal/mol |
| AAATTCACGTGTATAT | 0.19 kcal/mol |
| GTGCGCACGTGGTATA | -0.15 kcal/mol |
| AGGCTCACGTGTGTTG | 0.16 kcal/mol |
| TTATACACGTGTGTGA | 0.09 kcal/mol |
| AGTGTCACGTGGGTGT | -0.13 kcal/mol |
| AAGGTCACGTGTTACG | 0.06 kcal/mol |
| GTGTACACGTGTGGTT | 0.12 kcal/mol |
| CGTTTCACGTGAGCGT | 0.36 kcal/mol |
| AAATGCACGTGTCGTT | -0.05 kcal/mol |
| GAGCTCACGTGGAGTG | 0.18 kcal/mol |
| ATGAGCACGTGATTTG | 0.11 kcal/mol |
| ATTATCACGTGTTACG | 0.03 kcal/mol |
| GTTTTCACGTGTGACG | 0.34 kcal/mol |
| TGAATCACGTGTTCTG | 0.21 kcal/mol |
| TCAATCACGTGGGTTT | 0.1 kcal/mol |

| Sequence | relative binding free energy |
| --- | --- |
| GATAGCACGTGTGGTC | 0 kcal/mol |
| GTAGTCACGTGTCGAT | 0.21 kcal/mol |
| ATAGGCACGTGTAATG | 0.09 kcal/mol |
| ATAGTCACGTGAGTAT | 0.24 kcal/mol |
| AGGTGCACGTGGATGG | -0.07 kcal/mol |
| ATGTTCACGTGAGCTG | 0.3 kcal/mol |
| TCGAGCACGTGTCGGG | -0.12 kcal/mol |
| GTGATCACGTGTTCTG | 0.08 kcal/mol |
| TTTGTCACGTGCAGTT | 0.09 kcal/mol |
| GGCTGCACGTGGGGAG | -0.05 kcal/mol |
| GCGGGCACGTGTGGGC | 0.13 kcal/mol |
| CGGGTCACGTGAGTGA | 0.22 kcal/mol |
| TTATCCACGTGATGAG | 0.25 kcal/mol |
| TTTGGCACGTGCTTTC | -0.21 kcal/mol |
| TGGTGCACGTGATAGC | -0.08 kcal/mol |
| GGCATCACGTGGTATG | 0.12 kcal/mol |
| GGGTGCACGTGCTTGT | 0 kcal/mol |
| TTCGGCACGTGTCAGG | -0.14 kcal/mol |
| TTAGTCACGTGCAAGT | 0.23 kcal/mol |
| AGCGTCACGTGAAGTT | 0.29 kcal/mol |
| AGTTTCACGTGTCGTA | 0.41 kcal/mol |
| ATGTGCACGTGCAGTA | -0.05 kcal/mol |
| GGGCGCACGTGGTTTT | -0.02 kcal/mol |
